Test results taken from PubChem BioAssay AID1745853 (National Center for Advancing Translational Sciences (NCATS), 2022).
The list shows a part of the results. Further columns of the screen follow, without active or inactive calls.

Assays:
Experiment in all cases: Primary Screen for Target Class Profiling of Small Molecule Inhibitors of Methyltransferases
[1] = biological target: Glycine N-methyltransferase (Homo sapiens) (UniProt Q14749); conditions: purified enzyme, MTase-Glo SAH luminescence; measured here: GNMT inhibition; at 40 µM; stronger effect = lower value
Summary of the method: (§1)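 Each enzyme was assayed with SAM and its substrate. SAH formation detected by MTase-Glo luminescence; single-point 40 uM screen[…].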

[2] = biological target: Guanidinoacetate N-methyltransferase (Homo sapiens) (UniProt Q14353); conditions: purified enzyme, MTase-Glo SAH luminescence; measured here: GAMT inhibition; at 40 µM; stronger effect = lower value
Summary of the method: as §1

[3] = biological target: Histamine N-methyltransferase (Homo sapiens) (UniProt P50135); conditions: purified enzyme, MTase-Glo SAH luminescence; measured here: HNMT inhibition; at 40 µM; stronger effect = lower value
Summary of the method: as §1

[4] = biological target: Nicotinamide N-methyltransferase (Homo sapiens) (UniProt P40261); conditions: purified enzyme, MTase-Glo SAH luminescence; measured here: NNMT inhibition; at 40 µM; stronger effect = lower value
Summary of the method: as §1

[5] = biological target: Phenylethanolamine N-methyltransferase (Homo sapiens) (UniProt P11086); conditions: purified enzyme, MTase-Glo SAH luminescence; measured here: PNMT inhibition; at 40 µM; stronger effect = lower value
Summary of the method: as §1
On the % scale 0 is the no-effect control and ±100 the full control effect.

| Compound | activity change, negative = inhibition [1] [%] | activity change, negative = inhibition [2] [%] | activity change, negative = inhibition [3] [%] | activity change, negative = inhibition [4] [%] | activity change, negative = inhibition [5] [%] |
| --- | --- | --- | --- | --- | --- |
| CC1CCCC(NC(=O)C2(C)Cn3c(nc4ccccc43)C(=O)N2Cc2cccs2)C1C (stereo not given) | 4.16 | 3.64 | 7.85 | 3 | 3.31 |
| Cc1ccccc1NC(=O)Nc1ccc(CN2C(=O)N([C@@H](CC(C)C)C(=O)N[C@@H](CC(=O)O)c3ccccc3)C(=O)C2(C)C)cc1 | 0.128 | 5.38 | 1.66 | -12.2 | -2.31 |
| N#CCn1ccn2nc3c(c2c1=O)CCCC3 | -10 | -9.43 | -5.64 | -17.2 | 4.42 |
| Cc1ccc(CNC(=O)CCn2ccc3cc(S(=O)(=O)N4CCCC4)ccc32)cc1 | -3.14 | 2.74 | 1.59 | -8.2 | -1.04 |
| Cc1ccc(NC(=O)N2CCn3cccc3C2C(C)C)cc1F (stereo not given) | 6.87 | 0.366 | 3.14 | 0.75 | 5.38 |
| COc1ccc(O[C@H]2COCCN(S(=O)(=O)c3ccc(OC)cc3)C2)cc1 | -9.22 | -7.25 | -3.16 | -11.5 | -5.27 |
| CC(C)Cn1c(=O)c2ccc(C(=O)NC3CCCCC3)cc2n2c(=O)n(CC(N)=O)nc12 | 5.75 | 0 | 9.48 | -2.79 | 4.6 |
| C=C1CC[C@@]2(OC1)O[C@H]1CC3C4CC=C5C[C@@H](O[C@@H]6O[C@@H](C)[C@H](O)[C@@H](O)[C@H]6O)C[C@@H](O[C@@H]6O[C@H](C)[C@H](O)[C@H](O)[C@H]6O[C@@H]6O[C@@H](C)[C@H](O)[C@@H](O)[C@H]6O)[C@]5(C)C4CC[C@]3(C)[C@H]1[C@@H]2C (stereo not given in full) | 0 | 16.2 | -0.922 | 5.44 | 9.29 |
| CC1CCC(NC(=O)CCCc2nnc3n4nc(-c5ccccc5)nc4c4ccccc4n23)CC1 (stereo not given) | -0.794 | 0 | 6.34 | -1.62 | -2.59 |
| N#Cc1ccc(C(=O)N2CCC(Cc3nc(-c4cccnc4)n[nH]3)C2)cc1 (stereo not given) | -4.73 | -0.24 | -1.74 | -12.1 | -1.1 |
| COc1ccc(CNC(=O)CCc2nnc3n(Cc4ccc(Cl)cc4)c(=O)c4ccccc4n23)cc1 | -5.1 | 0 | 8.85 | 8 | 0.513 |
| Cn1ccnc1-c1ccc(N2CC[C@@]3(O)CCN(S(C)(=O)=O)C[C@H]3C2)nn1 | -1.26 | -4.3 | -3.19 | -9.68 | -10.1 |
| CCC(C)C(N)C(=O)NCCN1CCOCC1 (stereo not given) | -4.44 | -6.08 | 9.06 | -9.35 | 2.02 |
| CC(C)Cn1c(=O)c2ccccc2n2c(SCC(=O)NC3CCCCC3)nnc12 | -5 | -8.18 | 5.14 | -7.18 | -6 |
| COc1ccccc1CN1C(=O)c2ccc(-c3ccco3)n2CC1(C)C(=O)NC1CCC(C)CC1 (stereo not given) | 3.3 | 1.73 | 7.13 | 2.67 | 2.7 |
| CC(C)CCNC(=O)N1CCn2cccc2C1C(C)C (stereo not given) | 0.196 | 4.87 | -6.29 | -4.4 | 0.065 |
| CCc1ccccc1NC(=O)N1CCC(Oc2ncccc2NC)C1 (stereo not given) | -2.49 | 0.03 | -1.34 | -3.84 | 0.592 |
| Cc1cnc(CCNS(=O)(=O)c2cn(C)cn2)n1C1CCC1 | -3.03 | -3.16 | -0.032 | -4.28 | 0.617 |
| CCC(=O)N1CCc2cc(OC)c(O)cc2C1 | -1.65 | -1.17 | -5.43 | -14.9 | -7.17 |

| Compound | activity change, negative = inhibition [1] [%] | activity change, negative = inhibition [2] [%] | activity change, negative = inhibition [3] [%] | activity change, negative = inhibition [4] [%] | activity change, negative = inhibition [5] [%] |
| --- | --- | --- | --- | --- | --- |
| O=C(NC1CCN(c2nnc3ccccn23)CC1)c1ccc(Cl)s1 | -8.67 | 0.206 | -1.82 | -5.5 | 11.4 |
| COc1cccc2c1[C@@H]1CN(CCCCn3c(=O)[nH]c4c(sc5ncc(-c6ccccc6)nc54)c3=O)C[C@@H]1CO2 | -2.58 | 0.686 | -2.63 | -5.8 | 6.31 |
| COc1ccc(NC(=O)N2CCn3c(C)ccc3C2C(C)C)cc1 (stereo not given) | 0.905 | 0 | -5.97 | -5.09 | -3.86 |
| Cc1cc2c(N3CCCC3)nc(N3CCCC3)nc2n1C | -88.1 | -1.36 | -27.6 | -20.9 | -8.39 |
| O=C([C@@H](Cc1cccc(C(F)(F)F)c1)NS(=O)(=O)c1cc(F)c2c(c1)CCNC2)N1CCCC1 | -3.4 | -7.03 | 5.38 | -19 | -3.71 |
| COc1c2ccoc2cc2oc(CO[C@@H]3O[C@H](CO)[C@@H](O)[C@H](O)[C@H]3O)cc(=O)c12 | -5.33 | -8.26 | 1.71 | -16.1 | -6.36 |
| CN1C(=O)c2cc(C(=O)NCc3cccc(F)c3)nn2CC1(C)C(=O)NC1CCCCC1 (stereo not given) | -2.01 | -5.06 | -1.79 | -8.35 | -7.34 |
| CCC(C)/C=C(C)/C=C/C1=CC2=C(Cl)C(=O)C(C)(OC(C)=O)C(=O)C2=CN1C(CCC(=O)O)C(=O)O (stereo not given) | -1.11 | -3.53 | -1.05 | -15 | -4.34 |
| COCCCNC(=O)c1cnc2c(c1)N(C(=O)Cc1cn(C)c3ccccc13)CCC2 | -3.74 | -6.58 | -0.674 | -11 | -5.89 |
| CN1CCCCCCN(C(=O)Cc2c[nH]c3ccccc23)[C@H]2CCC[C@H]2C1=O | -5.98 | -8.61 | -2.23 | -14.4 | -8.92 |
| CC1(C(=O)NC2CCCCCCC2)Cn2c(ccc2-c2ccco2)C(=O)N1Cc1ccccc1F (stereo not given) | -8.43 | 0.021 | -3.78 | -15.9 | -5.89 |
| CC(C)NC(=O)c1ccc2c(=O)n(Cc3ccccc3)c3nn(Cc4ccc(F)cc4Cl)c(=O)n3c2c1 | 1.46 | 5.25 | -0.229 | -1.48 | -2.31 |
| O=C(CCCc1nnc2n3nc(-c4ccccc4)nc3c3ccccc3n12)NCCN1CCCC1 | -8.68 | 1.19 | -59.2 | 5.87 | -4.28 |
| CC(C)CNC(=O)c1ccc2c(=O)n(Cc3ccccc3)c3nn(CC(N)=O)c(=O)n3c2c1 | -1.42 | 0 | 0.745 | -10.2 | 1.26 |
| COc1ccc(NC(=O)CSc2nnc3n(CC(C)C)c(=O)c4cc(F)ccc4n23)cc1OC | 0.71 | 4.48 | 3.99 | 0.881 | 1.94 |
| COc1ccc(NC(=O)Cn2nc3n(CCc4ccccc4)c(=O)c4ccccc4n3c2=O)cc1 | 8.27 | 2.9 | 11 | 3.16 | 6.22 |
| CC1(C)CC(CC(=O)N2CCCCC2)(c2ccccc2)CCO1 (stereo not given) | -5.13 | 3.25 | 1.33 | 5.43 | -0.898 |
| CC1(C)CC[C@]2(C(=O)O[C@@H]3O[C@H](CO)[C@@H](O)[C@H](O)[C@H]3O)CC[C@]3(C)C(=CCC4[C@@]5(C)C[C@H](O)[C@H](O[C@@H]6OC[C@@H](O)[C@H](O)[C@H]6O)[C@@](C)(CO)C5CC[C@]43C)C2C1 (stereo not given in full) | 6.93 | 5.93 | 9.56 | -6.05 | 10.6 |
